Drawing on publication PMC9911399, “Two distinct binding modes provide the RNA-binding protein RbFox with extraordinary sequence specificity”, this text covers binding signal for 9 molecules.

To fix the notation:
T1: RBFOX1 RRM (Homo sapiens, UniProt Q9NWB1 109-208)
T1 sequence: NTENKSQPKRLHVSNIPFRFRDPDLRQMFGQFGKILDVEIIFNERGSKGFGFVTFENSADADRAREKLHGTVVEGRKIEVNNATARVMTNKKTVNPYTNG

B1: CUAUGUA (DNA:RNA)
RNA: GGGAGACCGGAAUUCAGAUUGUCCCUAUGUAUUAAAUCCCGUCGUAGCCACCA
DNA 1: CAATCTGAATTCCGGTCTCCC
DNA 2: TGGTGGCTACGACGGGATT
B2: CAGGAAC (DNA:RNA)
RNA: B1 RNA with U26A, A27G, U28G, G29A, U30A, A31C
DNA 1: CAATCTGAATTCCGGTCTCCC
DNA 2: TGGTGGCTACGACGGGATT
B3: CUUGGUU (DNA:RNA)
RNA: B1 RNA with A27U, U28G, A31U
DNA 1: CAATCTGAATTCCGGTCTCCC
DNA 2: TGGTGGCTACGACGGGATT
B4: GGGGCUA (DNA:RNA)
RNA: B1 RNA with C25G, U26G, A27G, U28G, G29C
DNA 1: CAATCTGAATTCCGGTCTCCC
DNA 2: TGGTGGCTACGACGGGATT
B5: UUUCUGA (DNA:RNA)
RNA: B1 RNA with C25U, A27U, U28C, G29U, U30G
DNA 1: CAATCTGAATTCCGGTCTCCC
DNA 2: TGGTGGCTACGACGGGATT
B6: UUAAUGG (DNA:RNA)
RNA: B1 RNA with C25U, U28A, G29U, U30G, A31G
DNA 1: CAATCTGAATTCCGGTCTCCC
DNA 2: TGGTGGCTACGACGGGATT
B7: AUGAUGC (DNA:RNA)
RNA: B1 RNA with C25A, A27G, U28A, G29U, U30G, A31C
DNA 1: CAATCTGAATTCCGGTCTCCC
DNA 2: TGGTGGCTACGACGGGATT
B8: GAGCCGU (DNA:RNA)
RNA: GGGAGACCGGAAUUCAGAUUGUCCGAGCCGUUUAAAUCCCGUCGUAGCCACCA
DNA 1: CAATCTGAATTCCGGTCTCCC
DNA 2: TGGTGGCTACGACGGGATT
B9: AACCUUC (DNA:RNA)
RNA: B8 RNA with G25A, G27C, C29U, G30U, U31C
DNA 1: CAATCTGAATTCCGGTCTCCC
DNA 2: TGGTGGCTACGACGGGATT

Where a chain is given by its changes, count along the chain named. The list shows a part of the results.

For the assay, the target named is T1, RBFOX1 RRM. Description: EMSA; HiTS-Eq, 1 nM pool, 10 min; buffer printed only for the single-RNA assays: 10 mM Tris pH 7.5, 150 mM NaCl, 3.4 mM EDTA, 0.001% NP-40, 30 C. Conditions: tags: His6 N-terminal (pET28a); label: 5' 32P. An outline of the steps:
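Purified RbFox RRM, wild type or mutant, was incubated for 10 min in 50 µL with 1 nM of a 5′-radiolabelled RNA pool carrying 7 randomized nucleotides, whose flanks were annealed to DNA oligonucleotides, over a series of increasing protein concentrations. Unbound RNA was resolved on 8% native PAGE, cut out, reverse-transcribed, barcoded by PCR and sequenced on an Illumina HiSeq 2500. Relative association constants were derived from changes in read counts for each RNA species versus the control reaction and normalised to the cognate motif.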
As for B1, the binding signal is 0.00654 KA relative to UGCAUGU. The result for B2 reads 0.0173 KA relative to UGCAUGU; that for B3, 0.0191 KA relative to UGCAUGU. The result for B4 reads 0.0305 KA relative to UGCAUGU; that for B5, 0.0328 KA relative to UGCAUGU; that for B6, 0.00567 KA relative to UGCAUGU. The result for B7 reads 0.0159 KA relative to UGCAUGU; that for B8, 0.00892 KA relative to UGCAUGU; that for B9, 0.00492 KA relative to UGCAUGU.
